About 540 (0.36%) of roughly 150,000 compounds showed an effect of 50% or more. Some of the results follow.
tested on: Plasmodium falciparum; assay: Primary screen in NF54 nanoGlo assay, in single point, at 2uM, 72h; a lower Z score goes with more inhibition; type: functional, Erythrocyte; details: timepoint 72 hour

Structure (SMILES) | % Inhibition [%] | Z score
O=C(Cc1cccc(C(F)(F)F)n1)Nc1nc(C2CC2)c[nH]1 | -7 | 0.89
O=C(OCc1cncs1)c1ccccc1 | 33 | -0.95
O=C(Nc1ccc2ccccc2c1)c1ccc(OC(=S)Nc2ccc(Br)cc2)cc1 | 9 | -1.34
O=S(=O)(Cc1cccc(F)c1)Cc1cc(-c2ccccc2)on1 | 1 | -0.07
Cn1nccc1C(=O)NCCn1ccc2ccoc2c1=O | -12 | 2.04
Cc1cccc2[nH]cc(Cc3nc4ccccc4c(=O)[nH]3)c12 | -14 | 1.19
Cn1nc(O)cc1-c1ccc(Cl)cc1F | -13 | 1.58
Cc1nnc(N(C)Cc2ncc[nH]2)c(C#N)c1C | -2 | 0.19
Cc1cnc(CN(CCCO)Cc2ccccc2Cl)cn1 | 9 | -1.13
O=C1NCCCc2[nH]c(CCn3nnc4ccccc43)nc21 | -8 | 1.5
COc1ccccc1C(=O)N1CCN(c2nc3ccc(C)cc3c3nnc(C4CCCCC4)n23)C[C@@H]1C | -7 | 0.86
Cc1ccccc1NC(=O)N1CCc2nc(-c3ccccc3)nc(N3CCCC3)c2C1 | -8 | 1.11
O=C(c1ccc(=O)[nH]n1)N1CC(Oc2cccnc2)C1 | -7 | 1.28
COC(=O)C12CCCC1CN(CC(=O)N1CCCCC1)C2 (stereo unspecified) | -1 | 0.09
COCC(=O)N1CCC(NC(=O)N2C3CCC2CC2(CC2)C3)CC1 | 14 | -1.75
CC[C@@H](C(=O)NC1(c2cc(F)ccc2F)CC1)N(C)CC | 1 | -0.15
NC[C@H]1CCN(Cc2cnc(-c3cccc4ccccc34)nc2)C1 | 5 | -0.78
Cc1cc(NC(=O)N[C@@H](Cc2ccccc2)c2n[nH]c(=O)[nH]2)nn1C | -7 | 0.88
COc1ccc(CNC(=O)[C@H]2CCCN(c3nnc4ccccn34)C2)c(OC)c1 | -6 | 0.65
CCN1CCN(C[C@@H]2CN(Cc3cccc(Cl)c3Cl)C[C@@H]2CO)CC1 | 0 | 0.02
Cc1ncc2n1CC[C@H](C(=O)N(C)c1cnn(C)c1)C2 | -6 | 0.81

Structure (SMILES) | % Inhibition [%] | Z score
CCN(CC)[C@@]1(c2nnnn2C2CCCC2)CCN(C(=O)Cn2ccnc2C)C1 | -20 | 2.28
COC(=O)C(c1cc(F)c(F)c(F)c1)N(C)CCN1CCOCC1C (stereo unspecified) | -9 | 1.22
Clc1cnccc1CNC1(c2noc(C3CC3)n2)CCCC1 | 7 | -1.11
Cc1nc(C(=O)NCCCn2ccnc2)c(Cc2ccccc2)s1 | 3 | -0.49
CC(C)CN1CCN([C@H]2CCOC3(CCN(C(=O)c4cc5ccccc5[nH]4)CC3)C2)CC1 | -7 | 1.25
Cc1cccc(-c2nc(Cn3nnc(-c4nc(-c5ccc(OC(C)C)cc5)no4)c3C)c(C)o2)c1 | -7 | 0.94
CC[C@H]1COCCN1C(=O)c1coc(CN2CCN(Cc3ccccc3)CC2)n1 | 3 | -0.51
O=C(NCC1CCN(C(=O)c2cnc[nH]2)CC1)c1ccoc1 | -11 | 1.1
Cc1nc(CC2CCCN(C(=O)NC(C)c3ccc(C)c(F)c3)C2)no1 (stereo unspecified) | -12 | 1.25
CCC(=O)Nc1cccc(-c2noc(C3CCN(C(=O)c4ccc(F)c(F)c4)CC3)n2)c1 | -1 | 0.11
C=CCN1CCN(C(=O)[C@H](C)Oc2cccc3ccccc23)CC1 | -4 | 0.8
COc1ccc(C(=O)N2C[C@@H]3CN(C(=O)C(C)C)C[C@]3(C(=O)N3CCCC3)C2)c(OC)c1 | -3 | 0.59
O=C([C@@H]1C[C@@H]2OCC[C@@H]2N1)N1CCc2cc(F)c(F)cc21 | -9 | 1.43
COCCc1noc([C@@H]2CC(c3ccccc3)=NO2)n1 | -6 | 1.09
c1ccc(-n2cc(-c3nc([C@H]4CCOC4)no3)nn2)cc1 | -11 | 1.92
O=C1Nc2ccc(Cl)cc2[C@@]12Nc1ccccc1-c1nc(-c3ccccc3)nn12 | 1 | -0.09
O=C1CCC(c2nc(-c3ccc4c(c3)OCO4)no2)=NN1 | -12 | 2.28
CN(C)C(=O)c1cnc(N2CCO[C@@H](Cn3cccn3)C2)c(Cl)c1 | 2 | -0.17
CN1C(=O)[C@@H]2CC[C@H]1CN(C(=O)Nc1cccnc1Oc1ccccc1F)C2 | -17 | 1.99
O=S(=O)(Cc1ccccc1Cl)N1CCC(n2ccnn2)CC1 | -14 | 2.12
COc1cccc(-c2cc3c(N(C)C)nccn3n2)c1 | -11 | 1.3

Structure (SMILES) | % Inhibition [%] | Z score
Cc1ccc(F)c(N2CCC[C@H](NC(=O)NC3CC3)C2=O)c1 | -17 | 1.45
C=CCN1CC[C@@]2(CCC1=O)CN(C(=O)C1CCOCC1)CCN2C | 10 | -1.78
N#Cc1cnc(NCCCOC2CCCCC2)nc1N | -6 | 0.78
C[C@H](NS(=O)(=O)c1cccc2c1N=S=N2)C(=O)Nc1cccc(F)c1 | 7 | -1.22
O=C(Nc1ccccc1)OCCCc1ccccc1 [3-PHENYLPROPYL PHENYLCARBAMATE] | 10 | -1.28
CCC[C@H]1CN(C(=O)Cc2ccc(O)c(Cl)c2)C[C@@H]1NC(C)=O | 12 | -1.31
CC[C@H](O)Cn1nc(C)nc1-c1cnc(NC)nc1 | 1 | -0.09
CNC(=O)[C@H](C)NC(=O)c1nc(NC(C)C)ncc1Br | 0 | -0.06
C[C@]1(NS(=O)(=O)c2cccs2)CCS(=O)(=O)C1 | -6 | 1.07
COc1ccc(CCC(=O)Nc2nnn[nH]2)cc1 | 1 | -0.09
COCC1CCN(S(=O)(=O)N2CCC3(CCCC3)C2)CC1 | 0 | 0.02
COc1ccc(NC(=O)CCc2c(C)n(C)c3nc(-c4ccc(Cl)cc4)nn3c2=O)cc1 | -10 | 1.04
CN(Cc1ccsc1)[C@H]1CCC(=O)N(Cc2ccccc2)CC1 | -9 | 1.12
CCCN(CC(=O)Nc1ccc(N2CCN(C(=O)NC(C)(C)C)CC2)cc1)C(=O)c1ccccc1 | -5 | 0.54
CN(C(=O)c1c2n(c(=O)n1C)CCCC2)c1cc(F)ccc1F | -9 | 0.8
Cc1nc2cccnc2n1C[C@H]1CCCN(S(=O)(=O)c2ccc3c(c2)CCC3)C1 | -19 | 2.85
O=C(COc1ccc(Cl)cc1C(F)(F)F)N(C1CCCC1)[C@H]1CCS(=O)(=O)C1 | 8 | -0.97
Cc1cccc(NCC(=O)Nc2nc(C)c(C)s2)c1 | 29 | -3.92
Cc1noc(C)c1C(=O)NCC1CCN(Cc2cc(=O)n3ccsc3n2)CC1 | 0 | -0.07
Cc1ccc2nc(COc3ccccc3C(=O)N3CCCCC3)cn2c1 | 26 | -3.36
CCn1ccc2cc(C(=O)N3CCC(c4nccn4CC4CC4)CC3)ccc21 | -1 | 0.13

Structure (SMILES) | % Inhibition [%] | Z score
CCn1cnnc1CCn1ccnc1-c1coc(-c2ccccc2)n1 | -2 | 0.2
Cc1ccc2nc(-c3ccc(NC(=O)Cc4cccs4)cc3)ccc2c1 | -4 | 0.67
CC(C)(C)c1cc(CNc2nc(NC3CC3)nc3c2CCNCC3)[nH]n1 | 8 | -1.33
CCn1cc(-c2noc(CNC(=O)N3CCN(C)CC3)n2)cn1 | -17 | 2.14
O=C(c1ccc2nsnc2c1)N1CC[C@H](N2CCc3ccccc3C2)C1 | -3 | 0.39
CCOc1cc(C(=O)O[C@@H]2CCC[C@H]2n2cccn2)ccn1 | -9 | 1.22
O=C(C[C@H]1C(=O)NCCN1Cc1ccccn1)NCc1cc(C2CC2)[nH]n1 | -8 | 1.16
COc1ccc(NC(=O)[C@@H](c2ccc(OC)c(OC)c2)N(Cc2ccc(F)cc2)C(=O)Cn2nnc3ccccc32)cc1 | 30 | -3.41
O=C(CN1CCc2ncnc(N3CCOCC3)c2C1)NC1CC1 | 4 | -0.4
Clc1ccc2cc3n(c2c1)CCNC3 | -5 | 0.66
Cc1cnccc1NC(=O)N1CCC(Oc2cccc(C#N)c2)CC1 | -9 | 1.03
Cc1sc2ncnc(N3CCc4[nH]cnc4C3)c2c1C | -17 | 2.17
CCc1ccc(-n2c(C)cc(C(=O)Cn3c(C)cc(COC)c(C#N)c3=O)c2C)cc1 | -8 | 0.86
O=C(Nc1ccc(-n2cccn2)c(Cl)c1)NC1CCC(O)CC1 (stereo unspecified) | -8 | 1.67
CC(=O)N1CCCC1C1CCCN1c1ncccc1C#N (stereo unspecified) | -9 | 1.63
COCc1nnc(N2CCC(Oc3cccc(C#N)c3)CC2)n1CC(C)C | -18 | 2.84
COc1ccc(S(=O)(=O)N(CC(=O)N2CCc3sccc3[C@@H]2COc2ccc(Cl)c(C)c2)C(C)C)cc1 | -14 | 1.28
O=C(c1noc2c1CCCC2)N1CCN(c2cccc(Cl)c2)CC1 | 2 | -0.34
CC(=O)NCCc1csc(C2CCN(C(=O)NCc3cccc(F)c3)CC2)n1 | 3 | -0.5
COc1cc(OC)cc(-n2c(CCC(=O)NCCOc3ccccc3)cc3c2-c2ccccc2CC3)c1 | -18 | 1.59

From ChEMBL document CHEMBL4888484, “Replenishing the malaria drug discovery pipeline: Screening and hit evaluation of the MMV Hit Generation Library 1 (HGL1) against asexual blood stage Plasmodium falciparum ,using a nano luciferase reporter read-out” (2022)
